How the values were obtained:
[1] = test system: MOLP8 multiple myeloma xenograft; test: MOLP8 xenograft model, anti-BCMA ADCs (Study 1); assay type: in vivo, mouse; conditions: MOLP8 xenograft Study 1, conditions as OPM2 model (single intravenous dose 20 mg/kg)
Method: Methods: Anti-tumor activity of exemplary anti-BCMA ADCs was assessed in an OPM2 multiple myeloma xenograft model. OPM2 cells were cultured and expanded for inoculation according to ATCC recommendations. […] Female CB17-Scid mice were inoculated subcutaneously with 100 μL of cell suspension on their right flanks and monitored for tumor growth. When the mean tumor volume reached ˜150 mm^3, mice were randomized into treatment groups and given a single intravenous dose (via tail vein) of 2.0 mg/mL dosing solution at 10 mL/kg for a total dose of 20 mg/kg. Mice were weighed and their tumors were measured two to three times/week. Animals with tumors exceeding 2000 mm^3 or 20 mm in any dimension were taken off study and appropriately euthanized according to IACUC protocol. Upon euthanasia, tumor samples and serum were collected and banked for subsequent analyses.
Methods: To further evaluate the anti-tumor activity of exemplary anti-BCMA ADCs in vivo, a screen of the same ADCs was performed in a second multiple myeloma xenograft model, MOLP8. […] All experimental conditions in this study were identical to those used for the OPM2 model with the exception of the model itself and the number of days from tumor inoculation to dose administration (day of dosing is indicated by an arrow in FIG. 15).

[2] = Accelerated stability testing at 37° C. (aggregation, concentration, DAR); assay type: physicochemical; conditions: 20 mM Histidine/HOAc pH 6.0
Method: (§1) Exemplary anti-BCMA ADCs (˜1 mg each in Eppendorf tubes, ˜4-5 mg/mL) were centrifuged and measured by UV absorption (NanoDrop) at 280 nm to determine protein concentrations. Samples were then incubated in a 37° C. water bath and sampled at four time points, 0 (freshly prepared), 1 day, 2 days, and 4 days. Samples taken at different time points were stored at −80° C. until the last sampling was completed. After thawing at 22° C., samples were analyzed with SEC and hydrophobic interaction chromatography (HIC) for quantification of antibody aggregation and DAR.

[3] = test system: OPM2 multiple myeloma xenograft; test: OPM2 xenograft model, anti-BCMA ADCs (Studies 1 and 2); assay type: in vivo, mouse; conditions: single intravenous dose 20 mg/kg; for Tumor growth inhibition (% ± SEM, day 28): OPM2 xenograft Study 2, CB17-Scid mice
Method: Methods: Anti-tumor activity of exemplary anti-BCMA ADCs was assessed in an OPM2 multiple myeloma xenograft model. OPM2 cells were cultured and expanded for inoculation according to ATCC recommendations. Cells were pelleted and resuspended in a solution of serum-free RPMI-1640 medium (50% v/v) and Matrigel (50% v/v) at a density of 5.0×10^7 cells/mL. Female CB17-Scid mice were inoculated subcutaneously with 100 μL of cell suspension on their right flanks and monitored for tumor growth. When the mean tumor volume reached ˜150 mm^3, mice were randomized into treatment groups and given a single intravenous dose (via tail vein) of 2.0 mg/mL dosing solution at 10 mL/kg for a total dose of 20 mg/kg. Mice were weighed and their tumors were measured two to three times/week. Animals with tumors exceeding 2000 mm^3 or 20 mm in any dimension were taken off study and appropriately euthanized according to IACUC protocol. Upon euthanasia, tumor samples and serum were collected and banked for subsequent analyses.
Conjugates of AB213, AB214, and AB215 were assessed in a first experiment (FIG. 11; Table 30); conjugates of AB212, AB216, AB217, and AB218 were assessed in a second experiment (FIG. 12; Table 31).
In the second experiment, to evaluate the antibody-specific activity of ADCs incorporating exemplary anti-BCMA antibodies, a ‘non-targeting’ ADC was generated by conjugating the ADL1-D2 linker-payload to the anti-HER2 antibody trastuzumab (AB185) at an average DAR of ˜4.0.

[4] = test system: BCMA-negative Jurkat cells; test: CellTiter-Glo cell viability, BCMA-negative Jurkat; assay type: cell-based
Method: Briefly, all cells and ADC solutions were prepared in a laminar flow hood under sterile conditions. For each cell line to be assayed, cells were resuspended in the appropriate medium supplemented with FBS to a density of 5.56×10^4 cells/mL. 90 μL of cell suspension was added to all wells of clear-bottom, black-wall, 96-well plates. For all test articles (anti-BCMA ADCs and reference ADCs), 10× stocks of the highest concentrations to be tested were prepared in 96-well plates and serially diluted 1:3 nine times to generate a 10-point curve. 10 μL of each 10× test article solution were added to the appropriate wells of the 96-well plates containing 90 μL of cells, and plates were placed in humidified incubators at 37° C. with 5% CO2 for 6 days. Immediately after placing assay plates in the incubator, a single 96-well plate of cells was treated with CellTiter-Glo® reagent (Promega), incubated at room temperature for 10 min, and luminescence was quantified on an EnVision microplate reader. This plate served as a “time zero” reference and was used to interpret the data obtained after 6 days of incubation. Day-6 luminescence values less than those of the time zero plate were indicative of cell death, whereas signals less than the day-6 vehicle-treated cells but greater than the time zero signal were indicative of cytostatic activity. […]

[5] = Freeze-thaw testing (DAR, aggregation, concentration); assay type: physicochemical; conditions: histidine/pH 6.0 buffer
Method: Exemplary ADC samples (80 μL each, histidine/pH 6.0 buffer) were frozen at −80° C. for 2 hours. The samples were then placed at 22° C. for 30 min to remove visible ice. This completed one cycle. Sampling was performed at the starting point and after 1, 4, and 10 freeze-thaw cycles. 15 μL of each ADC was sampled each time, 7.5 μL of which was used to analyze DAR, aggregation, and concentration. Before analysis, all samples were stored at −80° C.

[6] = HPLC analysis - free drug; assay type: physicochemical; conditions: residual unconjugated linker-payload in ADC batch
Method: Conjugate was precipitated with 10 volumes of acetonitrile on ice for 2 hours and spun down. Supernatants containing residual unconjugated payload were then injected onto an Agilent Poroshell 120 SB-C18120A column (4.6×100 mm, 2.7 μm) and eluted with a gradient of 45% B to 70% B over 10 min at RT. Mobile phase A was 100% water, mobile phase B was 100% acetonitrile, and the flow rate was 0.6 mL/min with detection at 252 nm. The amount of residual free drug was quantified via UV detection with comparison to the external standard curve of unconjugated linker-payload.

[7] = HIC analysis - DAR of the ADC batch; assay type: physicochemical; conditions: for Drug-to-antibody ratio (DAR): HIC
Method: as §1

[8] = SEC analysis - aggregation / percent monomer; assay type: physicochemical; conditions: absorbance at 280 nm, ADC batch
Method: The peak area absorbance at 280 nm was determined for the high molecular weight and monomeric conjugate components by area under the curve integration.

OPM2 cells = test: CellTiter-Glo cell viability, OPM2 (normal serum); assay type: cell-based, human; conditions: for GI50: OPM2 cells, 6 days, CellTiter-Glo, read-out: GI50 (nM) OPM2.1
MOLP8 cells = test: CellTiter-Glo cell viability, MOLP8; assay type: cell-based, human; conditions: for GI50: MOLP8 cells, 6 days, CellTiter-Glo, read-out: GI50 (nM) MOLP8.1
MM1.S cells = test: CellTiter-Glo cell viability, MM1.S; assay type: cell-based, human; conditions: for GI50: MM1.S cells, 6 days, CellTiter-Glo, read-out: GI50 (nM) MM1S.1

| Molecule | Tumor growth inhibition (% ± SEM, day 21) [1] | Aggregation (%) ([2]; 0 d at 37° C.) | Concentration ([2]; 0 d at 37° C.) | DAR (HIC) ([2]; 0 d at 37° C.) | Aggregation (%) ([2]; 1 d at 37° C.) | Concentration ([2]; 1 d at 37° C.) | DAR (HIC) ([2]; 1 d at 37° C.) | Aggregation (%) ([2]; 2 d at 37° C.) | Concentration ([2]; 2 d at 37° C.) | DAR (HIC) ([2]; 2 d at 37° C.) | Aggregation (%) ([2]; 4 d at 37° C.) | Concentration ([2]; 4 d at 37° C.) | DAR (HIC) ([2]; 4 d at 37° C.) | Tumor growth inhibition (% ± SEM, day 28) [3] | Free Drug (%) [6] | Drug-to-antibody ratio (DAR) ([7]; batch used in MOLP8 Study 1) | Drug-to-antibody ratio (DAR) ([7]; batch used in OPM2 Study 2) | Percent Monomer [8] | LD50 (nM) OPM2.1 (OPM2 cells) | GI50 (OPM2 cells) | other results |
| --- | --- | --- | --- | --- | --- | --- | --- | --- | --- | --- | --- | --- | --- | --- | --- | --- | --- | --- | --- | --- | --- |
| AB216-ADL1-D2-02 (conjugate) heavy: QVQLVQSGAEVKKPGSSVKVSCKASGGTFSNYWIHWVRQAPGQGLEWMGATYRIQSDTYYNQKYKSRVTITADKSTSTAYMELSSLRSEDTAVYYCARGAVYHGYDVIDNWGQGTLVTVSS[omitted - human IgG1 constant region] light: DIQMTQSPSSLSASVGDRVTITCRASQSISSYINWYQQKPGKAPKLLIYATSNLQIGVPSRFSGSGSGTDFTLTISSLQPEDFATYYCQQYRRLPWSFGQGTKLEIKRTVAAPSVFIFPPSDEQLKSGTASVVCLLNNFYPREAKVQWKVDNALQSGNSQESVTEQDSKDSTYSLSSTLTLSKADYEKHKVYACEVTHQGLSSPVTKSFNRGEC | 65.81 ± 11.49% | 0.65% | 4920 µg/mL | 3.81 | 0.92% | 4520 µg/mL | 3.82 | 1.60% | 5560 µg/mL | 3.81 | 2.73% | 5310 µg/mL | 3.84 | 96.99 ± 1.90% | 1.63% | 3.8 | 3.8 | 99.11% |  |  | GI50 [4]: ≥ 400 nM; LD50 (nM) Jurkat [4]: 400 nM; Aggregation (%) ([5]; After 6 freeze-thaw): 0.65%; Concentration ([5]; After 6 freeze-thaw): 4920 µg/mL; HIC DAR ([5]; After 6 freeze-thaw): 3.81; Aggregation (%) ([5]; Before freeze-thaw): 0.89%; Concentration ([5]; Before freeze-thaw): 4910 µg/mL; HIC DAR ([5]; Before freeze-thaw): 3.80; HIC DAR ([7]; batch used in cell viability analysis (Table 26)): 3.8 |
| AB213-ADL1-D2-02 (conjugate) heavy: QVQLVQSGAEVKKPGSSVKVSCKASGGTFTNYWIHWVRQAPGQGLEWMGGTYRSHSTTYYNQKFKSRVTITADKSTSTAYMELSSLRSEDTAVYYCARGAVYHGYDVIDNWGQGTLVTVSS[omitted - human IgG1 constant region] light: DIQMTQSPSSLSASVGDRVTITCRASQSISSYLNWYQQKPGKAPKLLIYATSNLQIGVPSRFSGSGSGTDFTLTISSLQPEDFATYYCQQFRRLPWTFGQGTKLEIKRTVAAPSVFIFPPSDEQLKSGTASVVCLLNNFYPREAKVQWKVDNALQSGNSQESVTEQDSKDSTYSLSSTLTLSKADYEKHKVYACEVTHQGLSSPVTKSFNRGEC |  | 0.72% | 4730 µg/mL | 4.20 | 2.02% | 4560 µg/mL | 4.20 | 1.71% | 4610 µg/mL | 4.29 | 1.98% | 4810 µg/mL | 4.40 |  | 0.0% |  |  | 99% | 32.461 nM | 1.16 nM | Tumor growth inhibition (% ± SEM, day 30) ([3]; OPM2 Study 1, ADC, day 30): 67.78 ± 5.08%; LD50 (nM) MOLP8.1 (MOLP8 cells): 79.032 nM; GI50 (MOLP8 cells): 6.06 nM; LD50 (nM) MM1S.1 (MM1.S cells): 236.418 nM; GI50 (MM1.S cells): 0.43 nM |
| AB212-ADL1-D2-02 (conjugate) heavy: QVQLVQSGAEVKKPGSSVKVSCKASGGTFSNYWIHWVRQAPGQGLEWMGGTYRSHSDTNYNQKFKSRVTITADKSTSTAYMELSSLRSEDTAVYYCARGAIYHGYDVIENWGQGTLVTVSS[omitted - human IgG1 constant region] light: DIQMTQSPSSLSASVGDRVTITCRASQSISSYLNWYQQKPGKAPKLLIYATSNLQIGVPSRFSGSGSGTDFTLTISSLQPEDFATYYCQQFRRLPWTFGQGTKLEIKRTVAAPSVFIFPPSDEQLKSGTASVVCLLNNFYPREAKVQWKVDNALQSGNSQESVTEQDSKDSTYSLSSTLTLSKADYEKHKVYACEVTHQGLSSPVTKSFNRGEC | 68.23 ± 12.52% | 1.10% | 4960 µg/mL | 5.19 | 1.52% | 4850 µg/mL | 5.24 | 1.83% | 4950 µg/mL | 5.19 | 1.62% | 5010 µg/mL | 5.21 | 94.53 ± 4.34% | 2.1% | 5.17 | 5.17 | 100% | 90.732 nM | 17.7 nM | LD50 (nM) MOLP8.1 (MOLP8 cells): 73.65 nM; GI50 (MOLP8 cells): 26.2 nM; LD50 (nM) MM1S.1 (MM1.S cells): 136.061 nM; GI50 (MM1.S cells): 3.69 nM |
